# Variants at the background level are over-represented here.
# B1: TPR 5TU (parent)
# chain: GGAUCUUCUCGAUCUAACAAAAAAGACAAAUCUGCCACAAAGCUUGAGAGCAUCUUCGGAUGCAGAGGCGGCAGCCUUCGGUGGCGCGAUAGCGCCAACGUUCUCAACUAUGACACGCAAAACGCGUGCUCCGUUGAAUGGAGUUUAUCAUG
# Variants of: B1
# Assay: polymerase ribozyme fitness, log enrichment relative to wild type (log ratio); higher = more active; in vitro selection for triplet polymerase activity
# Method in brief: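 Mutant libraries for each subunit of a heterodimeric triplet polymerase ribozyme were made by PCR and then transcribed. Each library underwent one round of in vitro selection in triplicate: annealing with a biotinylated primer, the partner subunit and triplets, frozen incubation at −7 °C, gel excision of extended constructs, streptavidin-bead capture and RT-PCR. Input and output libraries were Illumina-sequenced, and only genotypes with ≥10 input reads and ≥1 read per output were kept. Fitness is the logarithm, base 2, of genotype enrichment over wild-type enrichment, computed from inverse-variance-weighted replicate averages.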
row,Variant,polymerase ribozyme fitness (log ratio)
1,A52U C57A C95A A97U,-2.33
2,A52U U53G G88C A91C,≤ -4.2
3,U53A C79G G94A A106G,≤ -4.2
4,A52G U135G U139C A147C,≤ -4.2
5,A52U A150G,-1.24
6,U53A C85G G86A U101G,≤ -4.2
7,U53A C57U C87U A110U A138C,≤ -4.2
8,A52G U78C G100A C103U,≤ -4.2
9,U53A A91G G126U G140U,≤ -4.2
10,U53A G83A C114U,-3.28
11,U53G C85G U104G G126U,≤ -4.2
12,U53A G86A,-2.07
13,U53A C63A A66G G67A G84A A97G,≤ -4.2
14,A52U A73U A89C G92C C129G A137U,≤ -4.2
15,A52U U55A,-1.7
16,U53A U56A G152A,-4
17,U53A A138U,≤ -4.2
18,A52U A60G C85U C125A G128A A142U,≤ -4.2
19,C54A C87A,-4.19
20,U53G,-1.68
21,U53A,-0.874
22,U53A C87A A89U G141C,≤ -4.2
23,U53A C57G C95G,-4.01
24,U53A C75G U109G U139C,≤ -4.2

row,Variant,polymerase ribozyme fitness (log ratio)
1,A52U C95U,-1.52
2,U53A G81A A91C G100A C125A G140A,≤ -4.2
3,U53A C93U C108G A147G,≤ -4.2
4,A52G G94C,-1.32
5,U53A A119U,-2.1
6,U53A C96A,-2.37
7,U53A C96G,-2.55
8,U53A C85G U90A A91U C99A C118A A120U,≤ -4.2
9,U53G G59A A89U U90C U135G A137G,≤ -4.2
10,C54A C85A A97U,≤ -4.2
11,C54A C95U A106C,-2.19
12,C54A A106C,-2.06
13,U53G C76G A120C A142U,≤ -4.2
14,U53A C54A G68U G84A C96U,≤ -4.2
15,C54A A73U C87U,-3.49
16,C54A A73U C87G C108U,≤ -4.2
17,U53G A73G C85U G126U,-2.37
18,A52G U55A G65C G94C U101A,≤ -4.2
19,A52U A91G U134A,≤ -4.2
20,U53A C57G C75U A97U U102G G140A,≤ -4.2
21,A52U C69U G83C C116G,-4.13
22,A52G U55G G58A C95G U134A U139A,≤ -4.2
23,A52U G84C G94U C149A,≤ -4.2
24,U53A C75U G84C,-2.82

row,Variant,polymerase ribozyme fitness (log ratio)
1,U53G C72G C85A U90A A91C,≤ -4.2
2,U53G U82G G84C,≤ -4.2
3,U53G G62C C93G A122U,≤ -4.2
4,U53A A89C G94A G141C,-3.63
5,U53A C85A A89G A107C G126A C131U,≤ -4.2
6,A52U U55A U56G A66G C99A C132U,≤ -4.2
7,A52U U139A,≤ -4.2
8,U53G C99G G117A G141C,≤ -4.2
9,U53G U61C A120C U139G,≤ -4.2
10,U53A U144C U145G,-1.92
11,A52U U56A G83C G84A C99G A106U U144A,≤ -4.2
12,C54A A91C C93U G117A,≤ -4.2
13,U53A G88A A110U,≤ -4.2
14,U53A C57U A107G A115G,≤ -4.2
15,U53A C85G G133C A150C,≤ -4.2
16,U53A C75G U102G A137U,≤ -4.2
17,C54A A66U U144A,≤ -4.2
18,U53A G74A,≤ -4.2
19,U53A C95U,-0.368
20,U53C U78G U127C U148C,≤ -4.2
21,C54A A64C C85A G92U A121U C125G U134G U139G,≤ -4.2
22,A52U G81A C87U A91G A120U U139C A142C A147U,≤ -4.2
23,U53A C75G C76U U82A C95U G128A,≤ -4.2
24,C54A C76A G84C U134A,≤ -4.2

row,Variant,polymerase ribozyme fitness (log ratio)
1,A52G G94C U102C C131U,-1.64
2,U53A A107U U144G,-2.6
3,A52U C85U G88U U101C C103G A138U,≤ -4.2
4,A52U U53A U104C C129U G140U,≤ -4.2
5,A52U G86U C105U,-1.83
6,U53A A73G U127G A150C,≤ -4.2
7,A52G G92A C114G A119U,≤ -4.2
8,U53A C72G C96G A113C G143A,≤ -4.2
9,A52U G59A A98G,-1.21
10,C54A A91U C108U C116A C123A U148A,≤ -4.2
11,U53A A73G G74C C85A U90C,≤ -4.2
12,U53A U144A,-1.56
13,U53A A66G C75A C93U A106U A110U,≤ -4.2
14,A52U A66G C85U A120C G140U,≤ -4.2
15,U53C G58A C99G,-0.95
16,U53A A91G G124A U139G U146A,-3.5
17,C54A C76U A91U G141C,≤ -4.2
18,C54A C85G U102G,≤ -4.2
19,A52G U53A G67U C96A U148A,≤ -4.2
20,U53A C85U G133C,-2.22
21,C54A C85G U102C C103G A122U G126C,≤ -4.2
22,U53G G92C C93A,≤ -4.2
23,U53A G88C U90A G100U G140A,≤ -4.2
24,U53G C54G C96G C114U,≤ -4.2

row,Variant,polymerase ribozyme fitness (log ratio)
1,A52G G84A G94U G143A,≤ -4.2
2,A52U A91U A115G C131U,≤ -4.2
3,A52U C57U G83C,-3.29
4,U53C A107C,≤ -4.2
5,C54A C87A A121C,≤ -4.2
6,U53G A137U,≤ -4.2
7,U53A G88U,≤ -4.2
8,A52U A64U G68U A73U G92C,≤ -4.2
9,U53A U77C C103G,≤ -4.2
10,U53C A66G C85A U111C A119U C131A G136U U146G,≤ -4.2
11,U53A G59C U77G A91G U102A,≤ -4.2
12,A52G G92C,-1.46
13,U53G A73C G83U G117U,≤ -4.2
14,U53G C69A C99U C118A,≤ -4.2
15,U53G G80C C95U,≤ -4.2
16,U53A A91U C93U U104G,≤ -4.2
17,U53G U55C U56A C75G G100U C125A G141U,≤ -4.2
18,A52G G84U A110G,≤ -4.2
19,A52G U61G A73G,-2.84
20,U53G G83U G86A U104C,≤ -4.2
21,A52G G86A C93A G143A,≤ -4.2
22,U53A G84A,-2.38
23,U53A C95U A138C,≤ -4.2
24,U53A G58C C96U U135G,-3.98

row,Variant,polymerase ribozyme fitness (log ratio)
1,U53C C54G C57A G68A U90G C93G,≤ -4.2
2,U53A U130G C131G,≤ -4.2
3,U53A C95A A120G,-1.57
4,C54A C72U G88U C93U,≤ -4.2
5,U53A U139C G143U,≤ -4.2
6,U53A G70C C114A,≤ -4.2
7,U53G C125U,-1.66
8,A52U G59A A60C G68C G84A C96G G133A,≤ -4.2
9,U53A G81A C85U G92A,≤ -4.2
10,U53A C85U G88U U90A,≤ -4.2
11,A52G U56A C69A U77G C103G A122U,≤ -4.2
12,A52U A91U,≤ -4.2
13,U53A C72G C85U U127A,≤ -4.2
14,U53A G92C C105U A138C,≤ -4.2
15,C54A C93G A115U,≤ -4.2
16,A52U U56A C93A C108U,≤ -4.2
17,C54A C85A,≤ -4.2
18,U53A C72G U77A C93U C103A C116G C125U G143U,≤ -4.2
19,U53A C85A C95U A98U G141C,≤ -4.2
20,U53C C57G U61A G124A G128U,-4.14
21,A52U U82A C93A C131G,≤ -4.2
22,A52U G84A,-2.18
23,A52U C57U U61A A113G G124A A138C A142U,≤ -4.2
24,U53A U56A G58A C85U,0.824

row,Variant,polymerase ribozyme fitness (log ratio)
1,A52G U55A C87G,≤ -4.2
2,C54A C69U,-4.12
3,U53C C57A C95U A98G U104A,-0.528
4,U53A C131A,-3.17
5,U53A U78C G81A G83U G140U,≤ -4.2
6,A52U C63U C87A G140A,≤ -4.2
7,U53A C93A,-3.27
8,C54A A91U,≤ -4.2
9,U53C U61G C99U,≤ -4.2
10,U53G G94U A98C,-2.12
11,U53A C57G G74C C87A C93A C149A,≤ -4.2
12,A52G U56C G94A C108U A137C A138U,≤ -4.2
13,U53A C149U,-1.57
14,U53A C103U,-0.534
15,A52G G100C,≤ -4.2
16,A52G G100U,-3.98
17,U53G C96A C116U C123U G124U U148A,≤ -4.2
18,A52G U53A C57A A73U C87G C93A C132U A150C,≤ -4.2
19,U53A G68A C123U U134G,≤ -4.2
20,C54A C63G C69G C76G U82C C131G,≤ -4.2
21,A52U C54U C95U C96U C132A,≤ -4.2
22,U53G C57A C75G C93A C123A G133U,≤ -4.2
23,C54A A115C,-1.87
